Assay results published in the supplement of paper PMC10338343.
± gives the standard deviation. The full ranking holds about 5,500 sequences; the median of “pre-steady-state target cleavage rate” is about 0.1, and the highest 2% start at about 0.64. This is a selection; strong and weak results do not stand in their true shares.

test system: MIWI (PIWIL1) piRISC loaded with piRNA #2 (30 nt); experiment: pre-steady-state target cleavage rate (min^-1); MIWI and MILI are mouse PIWI proteins and EfPiwi is from a freshwater sponge; tags in brackets are library labels; higher = faster piRNA-guided slicing of the target; conditions: guide: piRNA #2 5'p-UUAGGUAACCCAGUAGAUCCAGAGGAAUUC; auxiliary factor: 500 nM mouse GTSF1
Procedure: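 Cleave-'n-Seq: a library of target RNAs (target site embedded in constant flanks, ACAGCATTCCGCGTTAGTGATATCCG... 5' flank; DNA-blocked outside the site) at 0.1 nM was incubated with 1 nM active mouse MILI or MIWI piRISC (synthetic 5'-monophosphorylated piRNA guide) with or without 500 nM mouse GTSF1 at 33 °C for 1 min to 16 h. Uncleaved targets were sequenced and normalised to non-target controls, and the pooled three trials were fitted to a burst-and-steady-state model to give the pre-steady-state cleavage rate (min^-1; k3 is constrained to at most 1e-4). Sequence is the target site only; target names encode pairing extent (gX:gY) and contiguous / 1-mismatch / 2-mismatch / bulge geometry. Fits with R² ≤ 0 are excluded.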

Sequence | pre-steady-state target cleavage rate
CUAUUCCUCUGGAUCUACUGGGUUACCGAA | 0.295 ± 0.066
CUUAACCUCUGGAUCUAUUGGGUUACCUAA | 0.0875 ± 0.015
CUUUUGCUCUGGAUCUACUCGGUUACCUAA | 0.0506 ± 0.0086
GAAUUCCUGUCGAUCUACUGGGUUACCUAA | 0.504 ± 0.055
CUAUUCCUCUGGAUCUACUGCGAUACCUAA | 0.171 ± 0.033
CAAUUCCUCAGGAUCUACUCGGUUACCUAA | 0.106 ± 0.019
CUUAAGGUGUGGAUCUACUGCGUUACCUAA | 0.0822 ± 0.015
CAAUUCCUCUGGAUCUACAGCGUUACCUAA | 0.187 ± 0.027
GAAUUCCUCUGGAUCUACUGGGUAUCCUAA | 0.234 ± 0.078
CAAUUCGUCUGGAUCUACUGGGUUUCCUAA | 0.469 ± 0.067
CUUAAGGUCUGGAACUACUCGGUUACCUAA | 0.0293 ± 0.025
CUUAACCUCUGGUUCUACAGGGUUACCUAA | 0.225 ± 0.03
CAAUUCCUCUGGAUCUACUGGGUAUGCUAA | 0.0159 ± 0.006
CUAUUCCUCUGGAUCUGCUGGGUUACCUAA | 0.509 ± 0.067
CUUAAGCUCUGGAACUACAGGGUUACCUAA | 0.145 ± 0.013
CUAUUGCUCUGGAUCUAGUGGGUUACCUAA | 0.0449 ± 0.0082
CAAUUCCUCUGGUUCUACUGGCUUACCUAA | 0.181 ± 0.018
CUUAUCCUCUGGAUGUACUGGGAUACCUAA | 0.146 ± 0.025
CUUAAGGAGACCUAGAAGUGCGUUACCUAA | 0.00455 ± 0.0012
CUAUUCCUCUGGAUCUACUGGGGUUACCUAA | 0.0442 ± 0.011
GAAUUCCUCUGCAUCAACUGGGUUACCUAA | 0.425 ± 0.046
CUUUUCCUCUGGAUCUACUGGGUUUCCUUA | 0.253 ± 0.056
CUUAAGCUGUGGAUCUACUGGGUUAGCUAA | 0.0688 ± 0.021

Sequence | pre-steady-state target cleavage rate
CUUAAGGAGUGGAACUACUGGGUUACCUAA | 0.0357 ± 0.024
CUUAAGGUCUGGAUGUAGUGGGUUACCUAA | 0.00804 ± 0.0064
CUUAAGGAGACCAUCUAGUGCGUUACCUAA | 0.00477 ± 0.0027
CAUUUCCUCAGGAUCUACUGGGUUACCUAA | 0.701 ± 0.054
GUAUUCCUCUGGAUCUACUGGGUUACCUAA | 0.0746 ± 0.032
CUAUUCCUCUGGAUCUACUGGCUUACGUAA | 0.0802 ± 0.022
CUUUUCCUCAGGAUCUACUGGGUUUCCUAA | 0.371 ± 0.056
CUAUUCCUCUCGAUCUACUGGGUAACCUAA | 0.398 ± 0.041
CUAUUCCUCUGGAUCUUCUGGGUUAGCUAA | 0.148 ± 0.049
CAAUUCCUCUCGAUCUACUGGGUAACCUAA | 0.476 ± 0.058
CAAUUCGUCUGGAUCUAGUGGGUUACCUAA | 0.0607 ± 0.015
CUAUUCCUCUGGAUCUACAGGGUUACGUAA | 0.3 ± 0.03
CUUAUCCUCUGGAUCUAGUGGGAUACCUAA | 0.0912 ± 0.02
CUAUUCCUCUGGAUCUAAUGGGUUACCUAA | 0.17 ± 0.026
CUUUUCCUCUCGAUCUACUGGGUUACCUUA | 0.539 ± 0.05
CUAUACCUCUGGAUCAACUGGGUUACCUAA | 0.372 ± 0.043
GAAUUCCUCUGGAUCUACUGGGUUACGAUA | 0.296 ± 0.045
CUUUUCCUCUGGAUCAACUCGGUUACCUAA | 0.0775 ± 0.014
CUUAAGCUCUGAAUCUACUGGGUUACCUAA | 0.0585 ± 0.014
CUUAAGGAGAGGAUCUACUGGGUUACGUUA | 0.00644 ± 0.0042
CUUAUCCUCUGGAACUACUGGGUUACGUAA | 0.48 ± 0.03
GAAUUCCUCUGGAACUACAGGGUUACCUAA | 0.281 ± 0.034
CUAUACCUCUGGAUCUACUGGGUUAGCUAA | 0.388 ± 0.044

Sequence | pre-steady-state target cleavage rate
CUUAAGGAGGGGAUCUACUGGGUUACCUAA | 0.045 ± 0.016
CUAAUCCUCUGGAUCAACUGGGUUACCUAA | 0.381 ± 0.043
GAAUUCCUCUGGAUCUACUGGGUAUGCUAA | 0.124 ± 0.031
CUUAAGGACUGGAUCUACAGGGUUACGUAA | 0.23 ± 0.047
GAAUUGCCUCUGGAUCUACUGGGUUACCUAA | 0.0426 ± 0.02
CUUUCCCUCUGGAUCUACUGGGUUACCUAA | 0.305 ± 0.036
CUUAACCUCAGGAUCUACUGGCUUACCUAA | 0.06 ± 0.014
CUUAACGUCUGGAUCUACUGGGUUACCAAA | 0.238 ± 0.024
CAAUUGCUCUGGAUCUUCUGGGUUACCUAA | 0.207 ± 0.036
GAAUUGCUCUGGAUCUACUGGGUUACCUAA | 0.0741 ± 0.026
CUAUUGCUCAGGAUCUACUGGGUUACCUAA | 0.437 ± 0.042
CUUUUCCUCUGAGAUCUACUGGGUUACCUAA | 0.384 ± 0.031
CAAUUCCUCUGGAUCUACUGGGUUAGCCUAA | 0.651 ± 0.079
CUUAAGCUCUGGAUCUACUGGGUUAUCUAA | 0.187 ± 0.028
CUUUUGCUCUGGAUGUACUGGGUUACCUAA | 0.282 ± 0.023
CUUUUCCUCUGGAUCUACACCGUUACCUAA | 0.0786 ± 0.0085
CUAUUCCUCUGCAUCUACUGGGUAACCUAA | 0.242 ± 0.029
CUUAAGCUCUGGAUGUACUCGGUUACCUAA | 0.0534 ± 0.016
CUUAAGCUCUGGAUCUACUGGUUACCUAA | 0.014 ± 0.0048
CUUAAGGACUGGAUCUACUGGGUUACCAAA | 0.0324 ± 0.026
CUUAAGGUCUGGAUAUACUGGGUUACCUAA | 0.242 ± 0.033
CUAUUCCUCUGGAUGUACAGGGUUACCUAA | 0.468 ± 0.03
CUUUUCCUCUGGAUCUACUGGGAAUCCUAA | 0.168 ± 0.053

Sequence | pre-steady-state target cleavage rate
GAAUUCCUCUGGAUCUACUGGGUUUACCUAA | 0.322 ± 0.047
CUUAAGGUCUCGAUCUACUGGGUUAGCUAA | 0.0797 ± 0.015
CUUUUCCUUUGGAUCUACUGGGUUACCUAA | 0.469 ± 0.038
CUUAUCCUCUGGAUGUACUCGGUUACCUAA | 0.0802 ± 0.03
CUUAAGCUCUCGAACUACUGGGUUACCUAA | 0.198 ± 0.024
CAAUUCCUCUGGAUCUACUGGGUUACUCUAA | 0.264 ± 0.048
CAAUUCCUCUCGAUCUACUGGGUUACCAAA | 0.904 ± 0.073
CAAUUCCUCUGGAUCUACUGGGUUCACCUAA | 0.524 ± 0.065
CUUUUCCUCUGGAUCUACUGGGUUGCCUAA | 0.41 ± 0.047
CUUAACCUCUGGAUCUACUGGGCUACCUAA | 0.0918 ± 0.009
CUUAAGGAGUGGAUCUACUGCGUUACGUAA | 0.134 ± 0.033
CUAUUGCACUGGAUCUACUGGGUUACCUAA | 0.413 ± 0.044
CUUAAGGAGUGGAUCUAUUGGGUUACCUAA | 0.018 ± 0.0049
CAAUUCCUCUGGAUGUACUGGGUAACCUAA | 0.172 ± 0.051
CUUAUCCUCUGGACCUACUGGGUUACCUAA | 0.133 ± 0.017
GAAUUCCUCUGGAUCUACUGGCUUACCUAA | 0.113 ± 0.02
CUUAAGGUCUGGAUCUACAGGGUUACCUAA | 0.165 ± 0.013
CUUAUCCUCUGGAACUACUGGGUUACCUAA | 0.451 ± 0.034
CUUAUCCUCUGGAUCUACUGCGUUACCAAA | 0.349 ± 0.064
GAAUUCCUCUGGAUCUUCUGGCUUACCUAA | 0.0526 ± 0.012
CUUAAGGAGAGGAAUCUACUGGGUUACCUAA | 0.00435 ± 0.0032
CAAUUCCUCAGGAUCUACUGGGUUAGCUAA | 0.245 ± 0.051
CUUAACCUGUGGAUCUACUGGGUUAGCUAA | 0.0587 ± 0.0086
